# This is one part of the list.
# B1: CpGal16 (Clavelina picta) (protein)
# chain: MAKMITNYVGKRIECIMVATDMMSTVFSLASATGDLPFYINFRQRENSIVMNTRVHGKWQYEKSQSSGGMNFYEPFRLVVEVRPSVFKVTVSTMGEEDGITFNLQYSQITIKPDEIVAMHLGYCNLRSELLVTDL
# Assays:
# Assay in all cases: glycan array binding signal (z-score within array); higher = stronger binding
# Details in all cases: glycan notation: IUPAC condensed, linker removed
# [1] = biological target: GalNAc(b1-4)GlcNAc
# Summary of the method: (§1)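 Glycan array data came from 3228 arrays in the Consortium for Functional Glycomics database, and only arrays with an available protein sequence were kept. Glycan names were put into IUPAC-condensed notation, and columns mapping to the same glycan were averaged. The binding signal is a within-array Z-score, averaged across arrays of one protein sequence run at different concentrations or buffers and across linkers. A negative Z-score can be read as non-binding.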
# [2] = biological target: GalNAc(b1-4)GlcNAc(b1-2)Man
# Summary of the method: as §1
# [3] = biological target: GalNAc(b1-4)GlcNAc(b1-2)Man(a1-3)[GalNAc(b1-4)GlcNAc(b1-2)Man(a1-6)]Man(b1-4)GlcNAc(b1-4)GlcNAc
# Summary of the method: as §1
# [4] = biological target: GalNAc(b1-4)GlcNAc(b1-3)GalNAc(b1-4)GlcNAc
# Summary of the method: as §1
# [5] = biological target: GalNAc(b1-4)GlcNAc6S
# Summary of the method: as §1
# [6] = biological target: GalNAc(b1-6)GalNAc
# Summary of the method: as §1
# [7] = biological target: GalNAc3S(b1-4)GlcNAc
# Summary of the method: as §1
# [8] = biological target: GalNAc3S(b1-4)GlcNAc3S
# Summary of the method: as §1
# [9] = biological target: GalNAc3S(b1-4)[Fuc(a1-3)]GlcNAc
# Summary of the method: as §1
# [10] = biological target: GalNAc4S6S(b1-4)GlcNAc
# Summary of the method: as §1
# [11] = biological target: GalNAc6S(b1-4)GlcNAc
# Summary of the method: as §1
# [12] = biological target: Glc(a1-4)Glc
# Summary of the method: as §1
# [13] = biological target: Glc(a1-4)Glc(a1-4)Glc(a1-4)Glc
# Summary of the method: as §1
# [14] = biological target: Glc(a1-6)Glc(a1-6)Glc
# Summary of the method: as §1
# [15] = biological target: Glc(a1-6)Glc(a1-6)Glc(a1-6)Glc
# Summary of the method: as §1
# [16] = biological target: Glc(b1-4)Glc
# Summary of the method: as §1
# [17] = biological target: Glc(b1-6)Glc
# Summary of the method: as §1
# [18] = biological target: GlcA(b1-3)Gal
# Summary of the method: as §1
# [19] = biological target: GlcA(b1-3)GlcNAc
# Summary of the method: as §1
# [20] = biological target: GlcA(b1-6)Gal
# Summary of the method: as §1
# [21] = biological target: GlcA3S(b1-3)Gal(b1-4)GlcNAc(b1-2)Man
# Summary of the method: as §1
# [22] = biological target: GlcA3S(b1-3)Gal(b1-4)GlcNAc(b1-3)Gal(b1-4)Glc
# Summary of the method: as §1
# [23] = biological target: GlcNAc(a1-3)Gal(b1-4)GlcNAc
# Summary of the method: as §1
# [24] = biological target: GlcNAc(a1-4)Gal(b1-3)GlcNAc
# Summary of the method: as §1
# [25] = biological target: GlcNAc(a1-4)Gal(b1-4)GalNAc
# Summary of the method: as §1
# [26] = biological target: GlcNAc(a1-4)Gal(b1-4)GlcNAc
# Summary of the method: as §1
# [27] = biological target: GlcNAc(a1-4)Gal(b1-4)GlcNAc(b1-3)Gal(b1-4)Glc
# Summary of the method: as §1
# [28] = biological target: GlcNAc(a1-4)Gal(b1-4)GlcNAc(b1-3)Gal(b1-4)GlcNAc
# Summary of the method: as §1
# [29] = biological target: GlcNAc(a1-4)Gal(b1-4)GlcNAc(b1-3)Gal(b1-4)GlcNAc(b1-3)Gal(b1-4)GlcNAc
# Summary of the method: as §1
# [30] = biological target: GlcNAc(a1-4)Gal(b1-4)GlcNAc(b1-3)Gal(b1-4)[Fuc(a1-3)]GlcNAc(b1-3)Gal(b1-4)[Fuc(a1-3)]GlcNAc
# Summary of the method: as §1
# [31] = biological target: GlcNAc(a1-6)Gal(b1-4)GlcNAc
# Summary of the method: as §1
# [32] = biological target: GlcNAc(b1-2)Gal(b1-3)GalNAc
# Summary of the method: as §1
# [33] = biological target: GlcNAc(b1-2)Man(a1-3)[GlcNAc(b1-2)Man(a1-6)]Man(b1-4)GlcNAc(b1-4)GlcNAc
# Summary of the method: as §1
# [34] = biological target: GlcNAc(b1-2)Man(a1-3)[GlcNAc(b1-2)Man(a1-6)]Man(b1-4)GlcNAc(b1-4)[Fuc(a1-6)]GlcNAc
# Summary of the method: as §1
# [35] = biological target: GlcNAc(b1-2)Man(a1-3)[GlcNAc(b1-4)][GlcNAc(b1-2)Man(a1-6)]Man(b1-4)GlcNAc(b1-4)GlcNAc
# Summary of the method: as §1
# [36] = biological target: GlcNAc(b1-2)Man(a1-3)[GlcNAc(b1-4)][GlcNAc(b1-2)Man(a1-6)]Man(b1-4)GlcNAc(b1-4)[Fuc(a1-6)]GlcNAc
# Summary of the method: as §1
# [37] = biological target: GlcNAc(b1-2)[GlcNAc(b1-4)]Man(a1-3)[GlcNAc(b1-2)Man(a1-6)]Man(b1-4)GlcNAc(b1-4)GlcNAc
# Summary of the method: as §1
# [38] = biological target: GlcNAc(b1-2)[GlcNAc(b1-4)]Man(a1-3)[GlcNAc(b1-4)][GlcNAc(b1-2)Man(a1-6)]Man(b1-4)GlcNAc(b1-4)GlcNAc
# Summary of the method: as §1
# [39] = biological target: GlcNAc(b1-2)[GlcNAc(b1-4)]Man(a1-3)[GlcNAc(b1-4)][GlcNAc(b1-2)[GlcNAc(b1-6)]Man(a1-6)]Man(b1-4)GlcNAc(b1-4)GlcNAc
# Summary of the method: as §1
# [40] = biological target: GlcNAc(b1-2)[GlcNAc(b1-4)]Man(a1-3)[GlcNAc(b1-4)][GlcNAc(b1-2)[GlcNAc(b1-6)]Man(a1-6)]Man(b1-4)GlcNAc(b1-4)[Fuc(a1-6)]GlcNAc
# Summary of the method: as §1
# [41] = biological target: GlcNAc(b1-2)[GlcNAc(b1-6)]Man(a1-6)[GlcNAc(b1-2)Man(a1-3)]Man(b1-4)GlcNAc(b1-4)GlcNAc
# Summary of the method: as §1
# [42] = biological target: GlcNAc(b1-2)[GlcNAc(b1-6)]Man(a1-6)[GlcNAc(b1-2)Man(a1-3)]Man(b1-4)GlcNAc(b1-4)[Fuc(a1-6)]GlcNAc
# Summary of the method: as §1
# [43] = biological target: GlcNAc(b1-2)[GlcNAc(b1-6)]Man(a1-6)[GlcNAc(b1-4)][GlcNAc(b1-2)Man(a1-3)]Man(b1-4)GlcNAc(b1-4)GlcNAc
# Summary of the method: as §1
# [44] = biological target: GlcNAc(b1-3)Fuc
# Summary of the method: as §1
# [45] = biological target: GlcNAc(b1-3)Gal
# Summary of the method: as §1
binder,measurement,setting,value
B1,glycan array binding signal (z-score),[1],0.046
same,glycan array binding signal (z-score),[2],-0.411
same,glycan array binding signal (z-score),[3],-0.19
same,glycan array binding signal (z-score),[4],-0.299
same,glycan array binding signal (z-score),[5],-0.296
same,glycan array binding signal (z-score),[6],-0.458
same,glycan array binding signal (z-score),[7],0.072
same,glycan array binding signal (z-score),[8],0.397
same,glycan array binding signal (z-score),[9],0.353
same,glycan array binding signal (z-score),[10],-0.331
same,glycan array binding signal (z-score),[11],-0.272
same,glycan array binding signal (z-score),[12],-0.332
same,glycan array binding signal (z-score),[13],-0.354
same,glycan array binding signal (z-score),[14],-0.402
same,glycan array binding signal (z-score),[15],-0.276
same,glycan array binding signal (z-score),[16],-0.41
same,glycan array binding signal (z-score),[17],-0.49
same,glycan array binding signal (z-score),[18],-0.261
same,glycan array binding signal (z-score),[19],-0.4
same,glycan array binding signal (z-score),[20],-0.293
same,glycan array binding signal (z-score),[21],-0.41
same,glycan array binding signal (z-score),[22],-0.213
same,glycan array binding signal (z-score),[23],-0.249
same,glycan array binding signal (z-score),[24],-0.389
same,glycan array binding signal (z-score),[25],-0.312
same,glycan array binding signal (z-score),[26],-0.404
same,glycan array binding signal (z-score),[27],-0.434
same,glycan array binding signal (z-score),[28],-0.32
same,glycan array binding signal (z-score),[29],-0.443
same,glycan array binding signal (z-score),[30],-0.21
same,glycan array binding signal (z-score),[31],-0.409
same,glycan array binding signal (z-score),[32],-0.363
same,glycan array binding signal (z-score),[33],-0.418
same,glycan array binding signal (z-score),[34],-0.14
same,glycan array binding signal (z-score),[35],-0.442
same,glycan array binding signal (z-score),[36],-0.445
same,glycan array binding signal (z-score),[37],-0.097
same,glycan array binding signal (z-score),[38],-0.264
same,glycan array binding signal (z-score),[39],-0.389
same,glycan array binding signal (z-score),[40],-0.446
same,glycan array binding signal (z-score),[41],-0.344
same,glycan array binding signal (z-score),[42],-0.177
same,glycan array binding signal (z-score),[43],-0.498
same,glycan array binding signal (z-score),[44],-0.418
same,glycan array binding signal (z-score),[45],-0.323

# — the supplement of paper PMC8728848
